Out of some 44,000 compounds screened, about 340 (0.77%) were called active. Another 5% or so got no clear call; they are omitted. Calls come from the whole dose curve; as a rule, active = well fitted inhibition curve with a large enough effect; inconclusive = small, poorly fitted or top-dose-only effect; inactive = flat fitted curve, though single readings scatter. This is one part of the list.
Assay: Acumen qHTS Assay for Inhibitors of the mTORC1 Signaling Pathway in MEF (Tsc2-/-, p53-/-) Cells: Sytravon; note: nearly all actives have a fitted effect of over 50% in size;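 for activity change, negative = inhibition: plate controls were DMSO for no effect and rapamycin for full effect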
Details: phospho-rpS6 immunofluorescence/PI, 24 h; series mostly up to 38.3 µM; activity change, negative = inhibition: at the top concentration
Procedure, shortened: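 Readout is phospho-S6 Alexa 488 signal normalized to PI per well, reported as % active cells with thresholds set from rapamycin (7.5 nM) and DMSO controls. Cells: Tsc2-/-, p53-/- MEFs, 24 hrs compound at 37 C; PI cell number serves as viability.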
Potency is the fitted concentration of half-maximal effect.

SMILES	activity change, negative = inhibition	Potency
COc1ccc(C(=O)NCc2ccc3c(c2)CCN3C(=O)c2cccc(C)c2)cc1OC	inactive: -17.3%	–
O=C(CCn1cccn1)Nc1cccc(C(F)(F)F)c1	inactive: -7.96%	–
Cc1oc2ncnc(N3CCOCC3)c2c1C(=O)NCc1ccccc1	inactive: 4.13%	–
Cc1nc2sccn2c(=O)c1S(=O)(=O)N1CCN(c2ccc(F)cc2)CC1	inactive: -3.5%	–
CCCN(Cc1cccs1)C(=O)Nc1ccc(Br)c(C)c1	inactive: -4.66%	–
CCCCOc1ccccc1NC(=O)Cn1c(-c2cncs2)nc2ccccc21	inactive: 4.88%	–
COc1ccc(OC)c(-n2cnc3cc(C(=O)NC4CCCC4)ccc32)c1	inactive: 0.0472%	–
O=C(Nc1nnc(S(=O)(=O)N2CCCC2)s1)c1ccc(F)cc1	inactive: -4.15%	–
O=C(NC1CC(=O)N(c2ccccc2)C1)c1cc2ccccc2o1 (stereo unspecified)	inactive: -2.44%	–
Cc1oc(-c2ccccc2)nc1CNS(=O)(=O)c1ccc(Cl)cc1	inactive: 13.5%	–
CN1CCN(Cc2c(O)ccc3cc(-c4ccccc4)c(=O)oc23)CC1	inactive: 1.8%	–
CCOc1ccc(-c2cc(C(=O)NCc3ccc(OC)cc3)c3c(-c4ccc(F)cc4)[nH]nc3n2)cc1	inactive: 0.0903%	–
CCCOc1ccc(NC(=O)CC2C(=O)N(c3cccc(C)c3)C(=O)N2CCc2ccncc2)cc1 (stereo unspecified)	inactive: -2.27%	–
COc1ccc(Nc2nc3c(S(=O)(=O)c4ccccc4)nnn3c3ccc(Cl)cc23)cc1OC	inactive: -8.61%	–
CCOC(=O)c1cccc(NC(=O)c2cc3c(=O)n(Cc4cccnc4)ccc3nc2C)c1	inactive: 0%	–
Cc1cccc(-c2nc(N3CCN(c4ccc(F)cc4)CC3)c3ccccc3n2)c1	inactive: -0.83%	–
CCOC(=O)c1cccc(Nc2nc(C(=O)OCC)nc3ccccc23)c1	inactive: 0.266%	–
CCCCCn1c(=O)[nH]c2cc(C(=O)N3CCN(c4ccccc4F)CC3)ccc2c1=O	inactive: 3.68%	–
CCOC(=O)c1[nH]c2ccccc2c1NC(=O)c1ccc(OCC)cc1	inactive: -33.1%	–
Cc1ccc(-n2ncc3c(NCCCn4ccnc4)ncnc32)cc1	inactive: 9.35%	–
Cc1ccc(NC(=O)c2cc(-c3cccs3)on2)cc1C	inactive: -20.3%	–
CCN1CCN(CCCNC(=O)c2cnn(-c3ccc(C)cc3)c2C2CCN(C(=O)OC(C)(C)C)CC2)CC1	inactive: 0.646%	–
COc1ccc(S(=O)(=O)NCCS(=O)(=O)N2CCN(c3ccccc3F)CC2)cc1	inactive: -1.57%	–
COc1cccc(-n2c(SCC(=O)Nc3ccc(F)cc3F)nc3c([nH]c4ccccc43)c2=O)c1	inactive: -23.8%	–

SMILES	activity change, negative = inhibition	Potency
c1csc(-c2nc3ccccn3c2Nc2ccc3c(c2)OCCO3)c1	inactive: -1.14%	–
COc1cc(-c2nc3cccc(C)n3c2Nc2ccc3c(c2)OCCO3)ccc1O	inactive: 0.545%	–
CCCCOC(=O)c1ccc(NC(=O)CSc2nc3c(c(=O)[nH]2)CCC3)cc1	inactive: -0.202%	–
CC(=O)c1ccc(N2CCN(c3ncnc4onc(-c5ccc(Cl)cc5)c34)CC2)cc1	inactive: -0.639%	–
CCOc1cc(-c2ccc(OC(=O)c3ccc(Cl)cc3)c(OC)c2)cc(=O)c2c(C)oc(C)c12	inactive: -1.23%	–
Cc1nnc(N2C(=O)c3oc4ccccc4c(=O)c3C2c2ccc(F)cc2)s1 (stereo unspecified)	inactive: -3.64%	–
Cc1c(C(=O)NCc2ccc(F)cc2)sc2nc(-c3ccccc3)cn12	inactive: 1.54%	–
COc1ccc(CCNC(=O)c2ccc(Cn3c(=O)c4ccccc4n(Cc4ccccc4Cl)c3=O)cc2)cc1OC	inactive: 3.42%	–
COC(=O)c1c(-c2ccc(Cl)cc2)noc1N1CCN(c2cccc(OC)c2)CC1	inactive: 4.21%	–
CCOc1ccccc1C(=O)NCC(c1ccc(N(C)C)cc1)N1CCc2ccccc21 (stereo unspecified)	inactive: 1.6%	–
Oc1c(C(c2ccc(Cl)cc2)N2CCCC2)sc2nc(-c3ccco3)nn12 (stereo unspecified)	inactive: 1.44%	–
O=C(Cc1ccc(NC(=O)N2CCCCc3ccccc32)cc1)Nc1ccccc1Br	inactive: -0.834%	–
Cc1cccc(NC(=O)CN(C)S(=O)(=O)c2cnc[nH]2)c1C	inactive: 1.01%	–
Cc1ccccc1CN1c2ccccc2-c2nc(SCC(=O)Nc3cc(F)ccc3F)ncc2S1(=O)=O	inactive: 5.68%	–
Cc1cc(C)c(NC(=O)CN2C(=O)CCn3nc(-c4cccn4C)cc32)c(C)c1	inactive: -8.98%	–
Cc1ccc(-n2ncc(C(=O)NCCCN3CCN(C)CC3)c2C2CCN(C(=O)OC(C)(C)C)CC2)cc1	inactive: 3.96%	–
CCCCC(=O)N1CCN(c2nc3c(C)c(C)ccc3s2)CC1	inactive: -5.37%	–
CCCCNc1cc(N2CCN(C3CCCCC3)CC2)c2noc3c2c1C(=O)c1ccccc1-3	inactive: -2.73%	–
Cc1cc(C)c(NC(=O)CSc2cn(CC(=O)N3CCOCC3)c3ccccc23)c(C)c1	inactive: -7.48%	–
Cc1cc(C)c2c(n1)SCC(=O)N2CC(=O)Nc1cccc(C)c1C	inactive: -0.0071%	–
Cc1oc2ncn(CC(C)C)c(=O)c2c1C(=O)NCCCN1CCCCC1C (stereo unspecified)	inactive: 3.49%	–
COc1cccc(Cn2c(=O)n(CC3CCC(C(=O)N4CCOCC4)CC3)c(=O)c3sccc32)c1 (stereo unspecified)	inactive: -10.8%	–
CCOc1ccc(NC(=O)c2oc3ccccc3c2NC(=O)Cc2cccs2)cc1	inactive: 2.16%	–
CCN1CCN(C(=O)c2ccc3c(c2)N(Cc2ccc(Cl)cc2)C(=O)c2ccccc2S3=O)CC1 (stereo unspecified)	inactive: -7.63%	–

SMILES	activity change, negative = inhibition	Potency
CCc1ccc(Cn2c(CNS(=O)(=O)c3ccc4c(c3)CCCC4)nc3cccnc32)cc1	inactive: -2.01%	–
CCc1ccc2c(c1)c(=O)c(C(=O)c1ccccc1)cn2CC(=O)Nc1ccc(C)c(Cl)c1	inactive: 3.09%	–
CCc1ccc2c(c1)c(=O)c(C(=O)c1ccc(C)cc1)cn2CC(=O)Nc1ccccc1C	inactive: 4.3%	–
COc1ccc(-c2nnc(SCC(=O)NCCc3ccccc3)nc2-c2ccc(OC)cc2)cc1	inactive: 11%	–
Cc1cccc(C)c1OCC(=O)Nc1c(C(=O)c2ccccc2)oc2ccccc12	inactive: -8.98%	–
CCc1ccccc1NC(=O)c1ncoc1-c1ccco1	inactive: 11.5%	–
COc1ccc(-c2c(C)nn3c(-c4ccccc4)cc(-c4ccccc4)nc23)cc1	inactive: -5.21%	–
Cc1ccc(C)c(N2CCN(C(=O)c3cccn4c(=O)c5ccccc5nc34)CC2)c1	inactive: 0.312%	–
CCCCOC(=O)c1ccc(NC(=O)c2cc(=O)c3ccccc3o2)cc1	inactive: 5.56%	–
Cc1cc(SCC(=O)Nc2ccc(C(F)(F)F)cc2)nc(=O)[nH]1	inactive: -5.97%	–
CCc1ccc(C(=O)c2cn(CC(=O)Nc3ccc(OC)cc3)c3cc4c(cc3c2=O)OCCO4)cc1	inactive: -5.69%	–
O=C(Nc1ccc(OC(F)(F)F)cc1)C(NS(=O)(=O)c1cccc2nsnc12)c1ccccc1 (stereo unspecified)	inactive: 0.321%	–
O=C(O)CCCn1cc(NC(=O)COc2ccccc2F)cn1	inactive: -1.75%	–
Cc1ccc(OCCSc2nc3ccccc3n2CC(=O)NC(C)C)cc1	inactive: 1.15%	–
O=C1CSC2(C(=O)N(Cc3c(F)cccc3Cl)c3ccccc32)N1c1ccc(F)c(F)c1 (stereo unspecified)	inactive: 1.96%	–
O=C(CSc1ncc2c(n1)-c1cc(Cl)ccc1N(Cc1ccccc1)S2(=O)=O)NCc1ccccc1	inactive: -28.7%	–
Cc1ccc(-c2nnn3c2nc(N2CCC(C)CC2)c2ccccc23)cc1	inactive: 1.98%	–
CCOc1ccc(S(=O)(=O)NCCc2csc3nc(-c4cccc(C)c4)nn23)cc1	inactive: 0.929%	–
Cc1ccc(C(=O)Nc2nnc(S(=O)(=O)N3CCCc4ccccc43)s2)cc1	inactive: 8.34%	–
Fc1ccc(Nc2c(-c3c[nH]c4ccccc34)nc3ccccn23)cc1	inactive: -5.08%	–
COc1ccc(CCNC(=O)c2ccc(CSCc3ccc(C)cc3)o2)cc1OC	inactive: 7.97%	–
COc1ccc(C(=O)Nc2ccc3nc(N4CCCCC4)cc(C)c3c2)cc1OC	–	active: 13.1 µM
Cc1cccc(CSc2ccc3nnc(CCNS(=O)(=O)c4ccccc4)n3n2)c1	inactive: 1.1%	–
COCCCNC(=O)C1CCN(C(=O)c2cc3sccc3n2Cc2ccc(Cl)cc2)CC1	inactive: 1.69%	–

SMILES	activity change, negative = inhibition	Potency
O=S(=O)(c1ccc(Cl)cc1)N1CCC(c2ccncc2)CC1	inactive: -1.09%	–
O=C(Nc1nnc(S(=O)(=O)N2CCOCC2)s1)c1cccc(Br)c1	inactive: -3.86%	–
Cc1nc2c(C(=O)NCCc3ccccc3)c[nH]n2c(=O)c1Cc1ccccc1F	inactive: 0.0593%	–
COc1cccc(C(=O)Nc2ccc(C(=O)OCc3cc(=O)n4cc(C)sc4n3)cc2)c1	inactive: 2.65%	–
COc1cc(NS(=O)(=O)c2cc3c(cc2C)n(C)c(=O)c(=O)n3C)cc(OC)c1	inactive: -13.2%	–
COc1cc(NC(=O)c2cc3cc4ccc(OC)c(Cl)c4nc3s2)cc(OC)c1	inactive: -16%	–
COc1cc(NC(=O)NCCn2nnc3cc(S(=O)(=O)N(C)C)ccc32)cc(OC)c1OC	inactive: 15.7%	–
Cc1ccc(-c2cc3ncc4c(n3n2)-c2ccccc2OC4)cc1	inactive: -9.19%	–
CCC(Sc1ccc2nnc(CCNS(=O)(=O)c3ccc(OC)cc3)n2n1)C(=O)OC (stereo unspecified)	inactive: 0.126%	–
Cc1ccccc1C(=O)NC1(C(F)(F)F)C(=O)Nc2c1c(=O)[nH]c(=O)n2CCc1ccccc1 (stereo unspecified)	inactive: 0.499%	–
COc1ccc(-c2nc3c4ccccc4n(CC(=O)Nc4ccc(C(C)=O)cc4)c(=O)n3n2)cc1	inactive: 2.06%	–
Cc1cc(C)cc(NC(=O)CSc2nc3c(cnn3-c3ccc(F)cc3)c(=O)[nH]2)c1	inactive: -0.752%	–
Cc1nc2ccc(S(=O)(=O)NCC(=O)Nc3ccc(C)c(Cl)c3)cc2s1	inactive: -1.44%	–
CC1=C(c2ccc(C)c(C)c2)S(=O)(=O)N=C1N1CCC(C(=O)Nc2ccc(Cl)cc2)CC1	inactive: 1.81%	–
CCc1nn(CC(=O)N2CCN(c3cc(C)ccc3C)CC2)c(=O)c2cc3occc3n12	inactive: 0.904%	–
COc1ccc(CCNc2nc(SCc3ccc(F)cc3)nc3ccccc23)cc1OC	inactive: -12.5%	–
O=S(=O)(Nc1ccc(-c2ccc(N3CCCCCC3)nn2)cc1)c1cccc(C(F)(F)F)c1	inactive: -0.374%	–
CCc1ccc(-c2nc(SCC(=O)NCC3CCCO3)c(-c3ccc(F)cc3)[nH]2)cc1 (stereo unspecified)	inactive: 3.53%	–
CNC(=O)c1ccc(CSc2nc3cccnc3n2Cc2cccc(F)c2)cc1	inactive: -4.07%	–
N#Cc1ccc(NC(=O)c2cc(-c3cccc(Cl)c3)on2)cc1	inactive: 4.03%	–
Fc1ccccc1N1CCN(c2ncc3c(n2)CCN(Cc2ccc(Br)s2)C3)CC1	inactive: 3.04%	–
Cc1ccc(C)c(NC(=O)N2CCc3cc(S(=O)(=O)N4CCC(C)CC4)ccc32)c1	inactive: -0.418%	–
Cc1ccc2nc(-c3cccc(Cl)c3)c(Nc3ccc4c(c3)OCO4)n2c1	inactive: -12.7%	–
C=CCc1ccccc1OCCn1c(C2CC(=O)N(Cc3ccc(F)cc3)C2)nc2ccccc21 (stereo unspecified)	inactive: 2.81%	–

Source: PubChem BioAssay AID493208 (National Center for Advancing Translational Sciences (NCATS), 2011)
